In PMC4336329 (PLoS ONE, 2015):
The campaign covered roughly 310,000 compounds. About 14,000 (4.5%) showed an effect of 50% or more. Effects have a minus sign here. The list shows a part of the results.

target: human ether-à-go-go-related gene (hERG) potassium channel (human, UniProt Q12809); test: primary screen, population patch clamp on CHO cells stably expressing hERG
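Note: peak tail current of the secondary pulse compared with the same well before compound.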

human ether-à-go-go-related gene (hERG) potassium channel, sequence (Q12809 whole entry, looked up): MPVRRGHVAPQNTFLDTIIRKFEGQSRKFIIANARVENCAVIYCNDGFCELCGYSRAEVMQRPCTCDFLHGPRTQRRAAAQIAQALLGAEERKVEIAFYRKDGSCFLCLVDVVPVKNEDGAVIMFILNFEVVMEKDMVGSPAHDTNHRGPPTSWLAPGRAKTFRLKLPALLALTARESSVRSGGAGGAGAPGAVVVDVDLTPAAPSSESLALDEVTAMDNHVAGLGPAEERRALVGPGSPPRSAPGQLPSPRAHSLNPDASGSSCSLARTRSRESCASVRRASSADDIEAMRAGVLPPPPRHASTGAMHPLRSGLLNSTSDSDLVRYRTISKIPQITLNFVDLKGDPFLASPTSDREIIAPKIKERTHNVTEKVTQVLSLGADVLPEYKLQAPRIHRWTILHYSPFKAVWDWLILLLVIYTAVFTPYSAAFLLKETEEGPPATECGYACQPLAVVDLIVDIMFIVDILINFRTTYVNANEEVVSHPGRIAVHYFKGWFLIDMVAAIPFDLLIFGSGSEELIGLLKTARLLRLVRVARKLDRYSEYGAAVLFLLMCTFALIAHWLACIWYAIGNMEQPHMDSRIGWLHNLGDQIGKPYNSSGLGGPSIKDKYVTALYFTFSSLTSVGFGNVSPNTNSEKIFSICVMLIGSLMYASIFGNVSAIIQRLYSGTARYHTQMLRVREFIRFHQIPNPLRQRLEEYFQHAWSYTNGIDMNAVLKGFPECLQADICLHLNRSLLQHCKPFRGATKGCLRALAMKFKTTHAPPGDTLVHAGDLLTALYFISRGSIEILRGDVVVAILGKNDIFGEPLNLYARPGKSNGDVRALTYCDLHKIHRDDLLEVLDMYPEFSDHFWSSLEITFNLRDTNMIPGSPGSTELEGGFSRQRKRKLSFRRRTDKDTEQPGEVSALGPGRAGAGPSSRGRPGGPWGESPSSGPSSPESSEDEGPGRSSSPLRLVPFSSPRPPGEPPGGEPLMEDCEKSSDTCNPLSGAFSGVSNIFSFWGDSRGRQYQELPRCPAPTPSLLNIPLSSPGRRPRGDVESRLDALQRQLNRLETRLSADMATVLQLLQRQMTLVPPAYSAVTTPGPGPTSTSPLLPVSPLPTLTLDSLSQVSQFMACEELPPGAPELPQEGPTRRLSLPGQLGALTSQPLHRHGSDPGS

SMILES | hERG current change (%, negative = inhibition) at 10uM [%]
O=C(CN1CCCCC1)Nc1ccccc1Cl | 21.1
COc1ccc2[nH]c(C(=O)NCCc3ccccc3)cc2c1 | 19.6
COC(=O)CCC(=O)Nc1cccc(Cl)c1 | -1.98
Cc1nnsc1SCCNC(=O)c1c(F)cccc1F | 20
CC1CCCCC1N(C)C1CCN(C(=O)CNC(=O)/C=C/c2cccc(Cl)c2)CC1 (centres unmarked) | -73.6
O=C(NCc1ccccc1Cl)c1cccc(NC2=NC3CS(=O)(=O)CC3S2)c1 (centres unmarked) | 13.1
CC(=O)c1cccc(NC(=O)NCc2cccnc2)c1 | 12.2
CC(C)N(NC(=O)c1cccc2ccccc12)C(C)C | -0.506
CN1C2CCC1/C(=C/c1cccn1C)C(=O)/C2=C\c1cccn1C | 1.43
CCCCN(CC)C(=O)Cc1ccc(Br)cc1 | -1.03
CN(C)c1cccc(NC(=O)C2(C)CC2(Cl)Cl)c1 (centres unmarked) | -14
CC12CCC(C(=O)NCCc3ccccc3)(OC1=O)C2(C)C (centres unmarked) | 9.83
COc1ccccc1CN1CCN(Cc2nc(-c3cccs3)no2)CC1 | -42.8
Cc1ccc(S(=O)(=O)N/N=C/c2ccc(OCC(=O)NC(C)C)cc2)cc1 | -24.7
CCOc1ccc(C2=Nn3c(nnc3-c3ccccc3)SC2)cc1Cl | 17
O=C(NCc1cccc2[nH]ccc12)C1CCC(=O)N(CCc2ccc(Cl)cc2)C1 (centres unmarked) | -30.8
C=CCn1c(O)c(/C=N/N2CCCCC2)c(=O)[nH]c1=O | -44.2
O=C(NC1=NCCS1)c1ccc(N2CCCC2=O)cc1 | 22.3
O=C(CSc1ccc(F)cc1)N1CCC(c2nc3ccccc3s2)CC1 | -67.1
COc1cc(C(=O)Nc2nc(C)cc(C)n2)cc(OC)c1OC | 9.87

SMILES | hERG current change (%, negative = inhibition) at 10uM [%]
CCNC(=O)CSc1nnc(-c2ccc(OC)cc2)n1CC(C)C | -3.51
Cc1cccc(C(C)C)c1NC(=O)CSc1nncn1C | 3.98
CCN1CCC(n2nccc2NC(=O)c2ccccc2Cl)CC1 | -21
CCc1nc(SCC(=O)O)c2c3c(sc2n1)COC(C)(C)C3 | 23.2
Cl.OCCN1CCN(CCSc2ccccc2)CC1 | -8.59
Cc1[nH]c(=O)[nH]c(=O)c1NS(=O)(=O)c1ccc2c(c1)CCCC2 | 13.8
O=C(Nc1cccc(Cl)c1)c1cnc[nH]1 | 14.5
O=C(Nc1nccs1)c1ccc(-c2ccc(F)c(Cl)c2)o1 | -3.09
CC1CCCCN1C(=O)CCn1c(=O)oc2ccccc21 (centres unmarked) | 13.3
Cc1ccc(S(=O)(=O)Nc2ccc(S(=O)(=O)Nc3cc(C)nc(C)n3)cc2)cc1 | 23.3
Cc1sc(NC(=O)/C=C/c2ccc(C(C)C)cc2)c(C#N)c1C | 1.67
CCOC(=O)CCCC(=O)N1CCOCCOCCN(C(=O)CCCC(=O)OCC)CCOCCOCC1 | 10.5
O=c1oc2ccc(Br)cc2cc1S(=O)(=O)c1ccc(F)cc1 | -0.784
Cc1ccc(-n2nc3c4c(cccc4c2=O)-c2ccccc2-3)cc1 | -5.9
O=C1COc2ccc(C(=O)CSc3ccc(Br)cc3)cc2N1 | 8.96
COc1ccc(S(=O)(=O)NNC(=O)c2ccc(-n3c(C)ccc3C)cc2)cc1 | 15.6
CCN(CC)C(=O)CN(c1ccc(C)cc1)S(=O)(=O)c1ccc(SC)cc1 | -28.5
Cc1ccc(C(=O)C(C)Sc2nnc(N)s2)cc1 (centres unmarked) | 0.236
CCCCCC1=CCC/C1=N\NC(=O)c1ccc2c(c1)OCO2 | -3.16
Cc1nnc(NC(=O)CSc2nnc(C)n2-c2ccc(F)cc2)s1 | 23.6

SMILES | hERG current change (%, negative = inhibition) at 10uM [%]
O=C(COc1cccc2cccnc12)N/N=C/c1cccn1-c1ccc(F)cc1 | -14
CCCCC(=O)N/N=C/c1ccc(N2CCOCC2)c([N+](=O)[O-])c1 | -10.6
Cc1nc(N2CCN(c3ccccn3)CC2)c2c(C)c(C(=O)N3CCN(c4cccc(Cl)c4)CC3)sc2n1 | 2.31
O=C(NC1CCCC1)C(c1ccc(Cl)cc1)N1CCc2ccccc21 (centres unmarked) | 11.9
CCOC(=O)N1CCN(CCC(=O)Nc2ccc(OC)cc2)CC1 | -1.76
Cn1c(CCNC(=O)c2ccc(Cl)cc2)n[nH]c1=S | 14.5
CC(C)NC(=O)c1onc(CSc2ccccn2)c1C(=O)NC(C)C | 9.42
CN=C(C)/C(C(=O)OC)=C(/O)c1c(F)cccc1F | 7.13
CC1CCN(C(=O)CSc2nncn2-c2ccccn2)CC1 | -14.4
N#CC1=C(N)Oc2cc(N)ccc2C1c1ccccc1Cl (centres unmarked) | 6.56
O=C(COc1ccc(C(F)(F)F)cc1[N+](=O)[O-])Nc1cccc(C(F)(F)F)c1 | 5.11
COCCNC(=O)[C@H](CSCc1ccccc1)N1Cc2ccccc2C1=O | -42.6
Cc1cccc(NS(=O)(=O)c2cccc(C(=O)N3CCCC(C(F)(F)F)C3)c2)c1 (centres unmarked) | -19.4
CC(C)c1ccc(C(C(=O)NC2CCCC2)N(C(=O)CNC(=O)c2ccco2)c2cccnc2)cc1 (centres unmarked) | 0.376
Cc1ccc2nsnc2c1NC(=O)c1ccc2c(c1)OCCO2 | 6.41
CCN(CC)S(=O)(=O)c1cc(C(=O)OC(C)C(=O)NCc2ccco2)ccc1C (centres unmarked) | -15.8
CSCc1ccc(C(=O)NC(C)c2cnn(-c3ccccn3)c2C)o1 (centres unmarked) | -0.643
O=S(=O)(c1ccc(Cl)c(NC(=S)N/N=C/c2ccc(O)cc2)c1)N1CCOCC1 | -21.1
Cc1cc(C)n2nc(Cc3ccccc3)nc2n1 | -9.09
